Measured values reported in the supplement of paper PMC12645437, “Orthogonal IMiD-Degron Pairs Induce Selective Protein Degradation in Cells” (ACS Chemical Biology, 2025).
The list shows a part of the results.

What follows are sequences tested against no compound (DMSO) (assay: log2 fold change of degron read counts, EGFP-low vs EGFP+ sorted cells; higher = lower degron-EGFP level without compound (poor expression or instability)). Conditions: compound: DMSO control; 18 h.
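Further: jurkat cells carrying a lentiviral library of mutant zinc finger degrons fused to EGFP plus mCherry, mCherry+ cells FACS sorted, degron abundance counted by next-generation sequencing.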

| Sequence | log2 fold change of degron read counts |
| --- | --- |
| FHCNQCGHMFTQKGNLLRHIKL | 0.467 |
| FCCNQCGANFTQKGNLLRHIKL | -0.619 |
| FLCEICGRWFTQKGNLLRHIKL | -0.057 |
| FHCPQCGAPFTQKGNLLRHIKL | -0.753 |
| FCCEQCGAMFTQKGNLLRHIKL | -1.98 |
| FFCPICGRDFTQKGNLLRHIKL | -0.25 |
| FLCNICGAPFTQKGNLLRHIKL | -0.178 |
| FECNICGAMFTQKGNLLRHIKL | -1.71 |
| FNCDQCGAGFTQKGNLLRHIKL | -0.617 |
| FACDICGAWFTQKGNLLRHIKL | -0.538 |
| FICPVCGAEFTQKGNLLRHIKL | -0.436 |
| FSCPICGHNFTQKGNLLRHIKL | -0.388 |
| FRCDICGAHFTQKGNLLRHIKL | -0.93 |
| FTCNQCGHSFTQKGNLLRHIKL | -0.549 |
| FSCEICGRTFTQKGNLLRHIKL | -1.96 |
| FLCEVCGAKFTQKGNLLRHIKL | -1.57 |

| Sequence | log2 fold change of degron read counts |
| --- | --- |
| LTCPICGFCCTQKGNLLRHIKL | 0.833 |
| FCCEQCGALFTQKGNLLRHIKL | -2.18 |
| FNCEICGHIFTQKGNLLRHIKL | -0.0963 |
| FCCPVCGACFTQKGNLLRHIKL | -0.126 |
| FACPICGANFTQKGNLLRHIKL | 0.0159 |
| FECNQCGHLFTQKGNLLRHIKL | -1.06 |
| LDCEICGFLCTQKGNLLRHIKL | 1.39 |
| FACEICGAYFTQKGNLLRHIKL | -0.292 |
| FQCPICGRNFTQKGNLLRHIKL | -0.162 |
| FECEICGALFTQKGNLLRHIKL | -0.957 |
| FSCPVCGAMFTQKGNLLRHIKL | 0.231 |
| FQCNQCGRGFTQKGNLLRHIKL | -0.558 |
| FVCNICGARFTQKGNLLRHIKL | 0.252 |
| FSCEVCGAVFTQKGNLLRHIKL | -2.34 |
| FLCNVCGAIFTQKGNLLRHIKL | 0.503 |
| FYCNQCGRRFTQKGNLLRHIKL | -0.273 |
